PubChem BioAssay AID2675 (National Center for Advancing Translational Sciences (NCATS), 2010)
Screen size: about 280,000 compounds; about 100 (0.036%) were called active. The shares of active, inactive and inconclusive entries below differ from those in the screen. Calls follow the shape of the dose curve; as a rule, active = well fitted inhibition curve with a large enough effect in the signal ratio, with a control signal flat (not every such curve was filed as active); inconclusive = small, poorly fitted or top-dose-only effect, or effect the other way, or a change in a side signal; inactive = no such curve, though single readings can be large or run the other way; the % refers to the signal ratio. Potencies of inconclusive entries are doubtful fits and often do not repeat. “Side channel” marks fits to a control or component signal instead of the main read-out.

Target: Muscleblind-like protein 1 (Homo sapiens) (UniProt Q9NR56)
Test: qHTS Assay for Inhibitors of MBNL1-poly(CUG) RNA binding
Conditions: TR-FRET MBNL1-His/biotin-(CUG)12 binding, 665/545 ratio; activity change, negative = inhibition: at 57.5 µM (top of the series)
Procedure, shortened: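 His-tagged MBNL1 binding to biotinylated (CUG)12 RNA was measured by TR-FRET using terbium anti-His antibody (0.055 ng/ul final) and streptavidin-XL665 (5 nM final). Compounds were titrated 92 nM to 58 uM; 60 min at room temperature.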
% is scaled to controls: 0 for no effect and ±100 for the full control effect; potency is read from the fitted curve at half-maximal effect; tags tell the direction and shape of the fitted curve or compound fluorescence and quenching.

Chain of UniProt Q9NR56 (Q9NR56 whole entry, looked up): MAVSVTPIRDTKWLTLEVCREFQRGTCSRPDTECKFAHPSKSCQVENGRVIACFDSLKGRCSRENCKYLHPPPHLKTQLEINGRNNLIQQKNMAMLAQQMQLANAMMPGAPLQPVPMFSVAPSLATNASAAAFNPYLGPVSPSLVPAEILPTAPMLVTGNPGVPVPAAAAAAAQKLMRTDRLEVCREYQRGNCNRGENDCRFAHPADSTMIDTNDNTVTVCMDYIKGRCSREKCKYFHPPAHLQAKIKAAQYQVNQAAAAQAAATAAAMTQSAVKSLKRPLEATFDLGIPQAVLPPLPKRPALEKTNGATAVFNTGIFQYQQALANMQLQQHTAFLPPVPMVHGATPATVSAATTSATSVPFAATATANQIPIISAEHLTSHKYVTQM

Compound | Potency | activity change, negative = inhibition
O=C1CCCC(O)=C1N=Nc1c(Cl)cc(Cl)cc1Cl | inconclusive: 15.8 µM [quencher, side channel, partial curve] | –
Cc1nc(NCCc2ccc(F)cc2)c2nnn(Cc3ccccc3)c2n1 | inactive | –
COc1cccc(CNc2nc3ccccc3n2CCN2CCCCC2)c1OC | inconclusive: 79.4 µM [inhibitor, partial curve] | –
CCCCCCn1c(=O)[nH]c2nc3cc(N)ccc3nc2c1=O | inconclusive: 14.1 µM [activator, partial curve] | –
CCOC(=O)CN1C(=O)N[C@@H](c2ccccc2)C(C(C)=O)=C1C | inconclusive: 3.55 µM [fluorescent, side channel, single point] | –
CCOc1ccc(CCNC(=O)c2cccnc2N2CCCC2)cc1OCC | inconclusive: 6.31 µM [quencher, side channel, full curve] | –
O=C(OCCOc1cccc(Cl)c1)c1ccc2ncsc2c1 | inactive | –
CNc1cc(CSC)nc(SCc2ccc(Cl)c(Cl)c2)n1 | inactive | –
COc1ccc(C(=O)N2CCN(c3ccccc3OC)CC2)cc1 | inactive | –
COc1ccc(N2CCN(C(=O)CCCN3C(=O)c4cccc5cccc(c45)C3=O)CC2)cc1 | inconclusive: 15.8 µM [quencher, side channel, partial curve] | –
COc1ccc(-c2cc3ccccc3n2CC(O)CN2CCOCC2)cc1 (stereo not drawn) | inactive | –
Cc1ccc(CCCOC(=O)C[N+]2(C)CCCC2)cc1 | inconclusive: 8.91 µM [fluorescent, side channel, single point] | –
CC(C)C(NS(=O)(=O)c1cccc2nsnc12)C(=O)NCc1ccc2c(c1)OCO2 (stereo not drawn) | inconclusive: 12.6 µM [quencher, side channel, partial curve] | –
O=C1c2ccccc2-c2nnc(-c3ccc(O)cc3)cc21 | inconclusive: 11.2 µM [quencher, side channel, partial curve] | –
COC(=O)c1sc(-c2cccs2)cc1NC(=O)/C=C/C(=O)O | inconclusive: 22.4 µM [quencher, side channel, partial curve] | –
COc1ccc(C(Cl)=C(c2ccc(OC)cc2)c2ccc(OC)cc2)cc1 | inactive | –
C/C=C(/C)C(=O)Nc1cccc(C2=NOC3(C2)C[C@H](C(N)=O)N(C(=O)Cc2ccc([N+](=O)[O-])cc2)C3)c1 (stereo partly drawn) | inconclusive: 22.4 µM [quencher, side channel, partial curve] | –
CCN(C(=O)/C=C/c1ccc(OC)cc1)C1CCCCC1 | inactive | –
Cc1cccc(Cn2c(NCC(C)O)nc3c2c(=O)n(C)c(=O)n3C)c1 (stereo not drawn) | inactive | –
O=C1CCC(=O)N1c1ccc(NCCc2ccccc2F)c([N+](=O)[O-])c1 | inconclusive: 3.55 µM [quencher, side channel, full curve] | –
O=C(CN1CCOCC1)n1c2ccccc2c2ccccc21 | inactive | –

Compound | Potency | activity change, negative = inhibition
Cc1ccc2cc(CN(Cc3cccs3)Cc3nnnn3CC3CCCO3)c(=O)[nH]c2c1 (stereo not drawn) | inconclusive: 79.4 µM [inhibitor, single point] | –
CC(=O)c1sc(NC(=O)C2=NN(c3ccccc3)C(=O)CC2)nc1C | inconclusive: 25.1 µM [quencher, side channel, partial curve] | –
CC(C)(C)n1cnnc1Sc1ccc([N+](=O)[O-])cn1 | inconclusive: 12.6 µM [quencher, side channel, partial curve] | –
C/C(=N/Nc1nc(C)c(C)s1)c1cccc([N+](=O)[O-])c1 | inconclusive: 14.1 µM [quencher, partial curve] | –
O=C(Nc1nc(=O)n(C(=O)C2CC2)s1)c1ccccc1 | inconclusive: 1.12 µM [quencher, side channel, full curve] | –
Cc1cccc(NC(=O)Cn2nc(-c3cccs3)ccc2=O)c1C | inconclusive: 28.2 µM [quencher, single point] | –
O=C(c1cnn2c(C(F)(F)F)cc(-c3ccco3)nc12)N1CCc2ccccc2C1 | inconclusive: 22.4 µM [quencher, side channel, partial curve] | –
O=C(Nc1cccc(NC(=O)c2ccco2)c1)c1ccc([N+](=O)[O-])cc1 | inconclusive: 5.01 µM [quencher, side channel, partial curve] | –
Cc1ccc2nc(N3CCC(C(=O)O)CC3)nc(-c3ccccc3)c2c1 | inactive | –
Cc1cc2oc(=O)cc(CSc3nnc(C)n3N)c2cc1C(C)C | inconclusive: 12.6 µM [quencher, side channel, partial curve, poor fit] | –
O=C(c1ccc(Sc2ccccc2)c([N+](=O)[O-])c1)N1CCOCC1 | inconclusive: 15.8 µM [quencher, side channel, partial curve] | –
O=[N+]([O-])c1ccc(C[n+]2cccc3ccc4cccnc4c32)cc1 | inconclusive: 14.1 µM [quencher, side channel, partial curve] | –
Cc1ccc(-c2c(=O)n(OCc3ccccn3)c3ccccc3[n+]2[O-])cc1 | inconclusive: 2.24 µM [quencher, side channel, full curve, poor fit] | –
CCOC1(OCC)C(c2ccc(Cl)cc2)C(C#N)(C#N)C1(OCC)OCC (stereo not drawn) | inactive | –
O=C(Nc1ccc(F)cc1F)C1CCCN1S(=O)(=O)c1cccc2nsnc12 (stereo not drawn) | inconclusive: 12.6 µM [quencher, side channel, partial curve] | –
Cc1ccc(C(=O)N/N=C2\SCC(=O)N2c2cc(C)ccc2C)cc1 | inconclusive: 3.55 µM [quencher, side channel, single point] | –
Oc1cccc(NC(=S)N=Nc2c(O)[nH]c3ccccc23)c1 | inconclusive: 15.8 µM [quencher, side channel, partial curve] | –
CN(C(=O)CCCN1C(=O)c2cccc3cccc(c23)C1=O)c1ccccc1 | inconclusive: 15.8 µM [quencher, partial curve] | –
CCN(CC)C(=O)C1CCCN(c2ccc([N+](=O)[O-])cc2/C=N/NC(=O)c2cccc([N+](=O)[O-])c2)C1 (stereo not drawn) | inconclusive: 3.55 µM [quencher, side channel, full curve] | –
Nc1cccnc1Sc1ccc([N+](=O)[O-])cn1 | inconclusive: 1.12 µM [quencher, side channel, full curve] | –
COc1ccc2[nH]c(C)c(CCNC(=S)Nc3ccccc3OC)c2c1 | inactive | –

Compound | Potency | activity change, negative = inhibition
O=C1NC(NS(=O)(=O)c2ccc(Cl)cc2)(C(F)(F)F)C(=O)N1Cc1cccnc1 (stereo not drawn) | inconclusive: 100 µM [inhibitor, single point] | –
Cc1cc(N2CCOCC2)c2c(N)cc(C)c(C)c2n1 | inconclusive: 14.1 µM [quencher, side channel, partial curve] | –
COc1ccc(-n2nc(C(=O)c3cccs3)cc(-c3nc4ccccc4[nH]3)c2=N)cc1 | inconclusive: 2.51 µM [quencher, side channel, single point] | –
O=[N+]([O-])c1ccc(Cl)c(NC(=S)N2CCCC2)c1 | inconclusive: 3.55 µM [quencher, side channel, full curve] | –
NS(=O)(=O)c1ccc(NC2=CC(=O)C(=O)c3ccccc32)cc1 | inconclusive: 14.1 µM [quencher, side channel, partial curve] | –
CC(C)(C)c1cc[n+](-c2[nH]c(=O)sc2/C=N/NC(=O)c2ccccc2[O-])cc1 | inconclusive: 3.98 µM [quencher, side channel, full curve] | –
O=C(CCN1C(=O)c2cccc3cccc(c23)C1=O)NCc1cccnc1 | inconclusive: 39.8 µM [quencher, single point] | –
O=Cc1cc(N=Nc2ccccc2Cl)ccc1O | inactive | –
CCOC(=O)N/N=C/c1cn(CCCOc2ccccc2)c2ccccc12 | inconclusive: 8.91 µM [fluorescent, side channel, partial curve] | –
N/C(=N\OC(=O)CSc1ccccc1)c1ccncc1 | inactive | –
O=C(N/N=C/c1ccc([N+](=O)[O-])cc1)c1[nH]ncc1Br | inconclusive: 0.891 µM [quencher, side channel, full curve, poor fit] | –
CC(=O)NC(CSC(CC(=O)c1ccco1)c1ccc(C)cc1)C(=O)O (stereo not drawn) | inactive | –
Cc1ccc(Cl)c(OCCCN(C)Cc2ccccc2)c1 | inactive | –
CCOc1ccc(-c2c(=O)n(O)c3ccccc3[n+]2[O-])cc1 | inconclusive: 12.6 µM [quencher, side channel, partial curve] | –
CC(=O)Nc1ccc(-c2csc(NNC(=O)c3ccccc3)n2)cc1 | inconclusive: 35.5 µM [quencher, side channel, single point] | –
COc1ccc(CC2(CO)CCN(Cc3nc(C(C)C)cs3)CC2)cc1 | inactive | –
CCSc1nnc2nc3[nH]c4c(C)cccc4c3nn12 | inconclusive: 3.16 µM [quencher, side channel, full curve] | –
O=c1oc2ccccc2c2c1C1O[C@](c3ccsc3)(Cc3c1ccc1ccccc31)O2 | – | inactive: 23.1% [at 11.5 µM]
Cn1c(=O)c2ccccc2n2c(=S)[nH]nc12 | inactive | –
CN1CCN(c2nnc(-c3cccs3)c3ccccc23)CC1 | inconclusive: 20 µM [quencher, side channel, partial curve] | –
CCOc1ccc(CNS(=O)(=O)c2ccc(-c3ccc(=O)[nH]n3)o2)cc1OC | inconclusive: 39.8 µM [quencher, side channel, single point] | –
